# Assay results from PubChem BioAssay (NCI).
# A structure can be active in one record and inactive in another.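 Growth was measured after 48 h exposure to one concentration of compound in 96-well plates. Values under 10 count as active.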 Not every entry of the source has a single result; some have several. This is not the full list of results. There may be further records. The screen tested this drug many times, at the concentration stated with the values; each value is one run. Signs of the kind (2×) count equal records among those shown.
# Assays:
# MALME-3M melanoma = test: NCI-60 one-dose screen, 48 h (100 = growth as untreated, 0 = no growth, -100 = all killed); conditions: 25 µM
# RXF 393 renal = test: as above; conditions: 0.25 µM
compound,measurement,setting,value
COc1cccc2c1C(=O)c1c(O)c3c(c(O)c1C2=O)C[C@@](O)(C(=O)CO)C[C@@H]3OC1CC(N)C(O)C(C)O1 (stereo not given in full),growth,MALME-3M melanoma; runs of 1995,"active: -89.4, -98.7, -92.1, -77.5, -96.1, -56.3, -93.7, -19, -67.8, -90.1, -99.3, -95.7, -50.7, -100 (2×), -96.3, -86.6, -68, -98.9, -98.2, -41, -94.7, -95.9, -69.5, -74.9, -72.3, -82, -54.1, -90, -91.2, -66, -88.1, -85.4, -86.4, -82.2, -71.7, -98.4, -61, -74.7, -76.2%"
same,growth,MALME-3M melanoma; runs of 1996,"active: -78.9, -75.9, -86.2, -69.6, -51.7, -92.5, -41.4, -78.3, -81.3, -55.2, -46.5, -92.4, -69.3, -91.2 (2×), -58.5, -76.5 (2×), -1.35, -58.6, -81, -95.3, -68.5, -96.3, -76.4, -83.4, -83.5, -70.9, -63.9, -90.3, -98.1, -65, -52.2, -85.2, 0.658, -97.7, -96.1, -77, -79.7% and inactive: 79.7%"
same,growth,MALME-3M melanoma; runs of 1997,"active: -54.1, -81.1, -93.7 (2×), -93.1, -91.5, -58.2, -59.1, -94.5, -44, -84.2, -80.6, -92.6, -91.1, -64.1, -78.6, -97.7, -69.7, -30.6, -83.6, -89.7, -92.5, -64.5, -94, -88.2, -87.7, -94.4, -69.6, -43.7, -96.9 (2×), -100, -95.9, -94.9, -90%"
same,growth,MALME-3M melanoma; runs of 1998,"active: -43.8, -97.7 (2×), -94.3, -53, -96, -91.6, -93.4, -81.3, -65.2, -28.9, -61.2, -70.6, -80.5, -63.8, -93.7, -61.3%"
same,growth,MALME-3M melanoma; runs of 1999,"active: -99.2, -89.8, -75.6, -98.6, -84.1, -100, -85.9, -71.4%"
same,growth,MALME-3M melanoma; runs of 2000,"active: -10.7%, -88.7%"
same,growth,RXF 393 renal; runs of 2006,"inactive: 10.9%, 37.3%"
same,growth,RXF 393 renal; runs of 2007,"inactive: 45.8, 38.4, 53.8, 39.8, 56.2, 10.4, 31, 47.7, 42.3, 12.5, 42.6, 52.9, 72.1, 20.8, 37.9, 35.5, 80.2, 90.2, 50.7, 33.2, 78.1, 41.5, 70, 59.8, 78.4, 35.7, 40.3, 14.8, 77.5, 56.1, 55.9% and active: -21.5%"
same,growth,RXF 393 renal; runs of 2008,"inactive: 61.2, 38.6, 16.5, 48.6, 54.4 (2×), 45.6, 66, 43, 37.8, 50.3, 33.2 (2×), 57.2, 63.3, 32.7, 19.2, 19.4, 26.6, 22.7, 42.7, 63.1, 22.1, 20.4 (2×), 21.8, 44, 38.4, 34.2, 40.2, 31.5, 55.5, 70.6, 50.4, 51.6, 63.9, 52.1, 30.6, 48.1, 64% and active: -16, -36.6, -26, -5.51, -22.6, -12.1, 7.97, -3.91, -2.04, 8.74, 8.24, 9.07%"
same,growth,RXF 393 renal; runs of 2009,"inactive: 41.9, 55.3 (2×), 85.1, 43.6 (2×), 36.1, 81.5, 204, 108, 79.9, 64.1, 53.4, 79.3, 67.2, 63.3, 44.3, 54.1, 61.8, 58.9, 50.7, 61.1, 54.8, 73.1, 59.1, 55.2 (2×), 46.7, 64.2, 49.1, 54.5, 62.2, 69 (2×), 73.9, 46.3, 58.4, 28.7, 31.9, 35.4, 19.2, 67.8, 69.6, 37.2, 50.4, 45.2, 49 (2×), 55.5, 31.1, 48.3, 41.2, 26.8, 45.4, 31.6, 25.4, 27.9, 48.7, 66, 45.7, 56.9, 29.5, 59.8, 14.4, 53.2, 43.7, 48.6, 14.6, 19.8% and active: 6.35%, -5.95%"
same,growth,RXF 393 renal; runs of 2010,"inactive: 66.9, 64.4, 71.6, 41.6, 72.9, 60.7, 59.5, 74.1 (2×), 54.3 (2×), 37.9, 57.2, 57.5 (2×), 40.3, 42.4, 41.5, 51.5, 49.5, 68.8, 70, 29, 53.4, 57.7, 28.6, 59.2, 43.3, 38.2, 56.8, 60.9, 69.9, 78.9, 55, 58.1, 66, 48.3, 66.7, 56.3, 65.5, 62.6, 65, 77.4, 65.6, 62.4, 71.5, 69.2, 71, 65.2, 54.1, 51.7, 55.3, 55.7, 57.6% and active: -12.3%"
same,growth,RXF 393 renal; runs of 2011,"inactive: 63.7, 54.2 (2×), 48.3, 62.6, 48.2, 39.1, 47.8 (2×), 58.8, 44.5, 58.9, 75.6, 56, 67.6, 75.3, 68.9, 64.9, 58.4, 61.1, 64.7, 59.5, 64.6, 73.9, 63.8, 79.5, 59, 66.5, 29.6, 58.5, 64.3, 57.9, 55.4, 48, 46.2, 49.3, 43.4, 61.8, 59.1, 57.4, 58.1, 51.3, 44.7, 52.5, 67.4, 55.9, 35.8, 58.3, 46.9, 62.7, 57, 65.8, 42.7, 51.8%"
same,growth,RXF 393 renal; runs of 2012,"inactive: 56.2, 40.8, 35.8, 52.5, 64.9 (2×), 64.8 (2×), 57.5, 71.3, 53.4, 32.9, 54.9, 64, 46.4, 25.2, 33.8 (2×), 44.9, 42.8, 50.2 (2×), 54.7, 50.6, 35, 46.6, 62.2, 55.1, 66.1, 60.9 (2×), 50.5, 59.8, 61, 60.8, 75.2, 67.2, 63.7, 59.2, 31, 47.7, 63.8, 49.2, 43.3, 55.4, 35.6, 71.7, 72.7, 77.1, 82.7 (2×), 69, 83.6, 95.1, 73.7, 86.3, 89, 84.3, 80.3, 88, 48.3, 52.4, 49.3, 40.7, 57.4, 67, 59.4, 59.3, 56.7, 67.1, 59, 65.3%"
same,growth,RXF 393 renal; runs of 2013,"inactive: 53.9, 60.5, 56.8, 50.3 (2×), 58.8, 60.4, 68.6, 61.4, 59.5 (2×), 59.1, 58, 63.5, 51.3, 67.2, 62.9, 74.9, 77.2, 69.7, 76.9 (2×), 72.9, 75.3, 65.5, 69.5 (2×), 76, 72, 71, 65.1, 72.3, 73, 66.1, 67.8, 63.3, 51.5, 64.6, 57.9, 57, 67.3, 62.6, 52.5, 73.8, 72.5, 74, 77.6, 79.1, 76.7, 78.3, 78.9, 80.7, 74.3, 76.6, 84.2, 78.4, 72.8, 68.2, 77.7, 60.9, 50.2, 46.6, 64.4, 45.7, 61.7, 65.6%"
same,growth,RXF 393 renal; runs of 2014,"inactive: 66.4, 65.2 (2×), 66.8, 54.1 (2×), 38.9, 40.9, 47.6, 20.8, 42.6, 45.6 (2×), 76.2, 63.4 (2×), 72.6, 68.8, 73.1, 63.9, 78.4, 82.9, 80.3, 61.3, 71.6, 72.1, 68.1, 43.6, 61.7, 65.8, 44.2, 51.4, 43.2 (2×), 41.4, 35.7, 53.9 (2×), 43.8, 49.4, 45.9, 37.9, 43.5, 46.7 (2×), 50.7, 63 (2×), 61, 36, 69.9, 55.1, 38.2, 61.9 (2×), 45.7 (2×), 55, 41.2, 47.1, 49.7, 59, 71.4, 70.5, 75.3, 70, 63.1, 71.7, 79.4, 72.3, 75.1, 76.5, 67.3, 76.9, 69.4%"
